The values below come from article PMC10726135.

This is one part of the list. At the low end of the ranking the order means little. Measured with an extract: partners may take part in the binding.

The test has as its target T1, HNF4alpha2 (COS-7 nuclear extract) (UniProt P41235).
T1 sequence: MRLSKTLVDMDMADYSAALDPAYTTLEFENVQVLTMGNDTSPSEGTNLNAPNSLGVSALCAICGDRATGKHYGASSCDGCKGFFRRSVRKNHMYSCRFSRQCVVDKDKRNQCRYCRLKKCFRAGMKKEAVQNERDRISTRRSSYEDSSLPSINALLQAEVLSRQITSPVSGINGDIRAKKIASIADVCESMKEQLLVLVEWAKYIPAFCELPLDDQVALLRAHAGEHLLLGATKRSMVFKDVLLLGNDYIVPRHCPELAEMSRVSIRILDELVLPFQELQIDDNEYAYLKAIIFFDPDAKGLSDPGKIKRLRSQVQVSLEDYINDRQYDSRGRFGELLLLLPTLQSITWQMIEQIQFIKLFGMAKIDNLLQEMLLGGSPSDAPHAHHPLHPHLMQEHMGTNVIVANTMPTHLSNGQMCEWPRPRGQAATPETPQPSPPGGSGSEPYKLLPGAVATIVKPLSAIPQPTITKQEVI
Nature of the test: protein-binding microarray. As to conditions: COS-7 nuclear extract on double-stranded Agilent 4x180k PBM; binding buffer, salt, pH and temperature not given; high values mean tight binding; double strand, one strand shown; sequences stand for … in …GCCTAGGGAGATTAGAGTATCGGTCGA
On to GGAGGGGTAAGGGTGGGGGTGGGGAGGATA, for which the binding signal (log2 normalized intensity) was -1.13.

Take AGCCTTATCAGTATCAATGAGATCTCCCCA: the binding signal (log2 normalized intensity) came out at 2.28.

Turning to TGTAACTGTAACTATATTGACCACCTCCTC, the binding signal (log2 normalized intensity) worked out at 1.76.

As to GAGTCTTAGGGAGGGGCCAGGACAAAGGTC, the binding signal (log2 normalized intensity) was 5.72.

Turning to TGAGTTATTGGAAGAATGGAATTGCCATTG, the binding signal (log2 normalized intensity) worked out at 1.29.

Regarding GCAAGTAGAGCTGCTTACATTTTGCTCTGT, the binding signal (log2 normalized intensity) was -0.121.

Turning to TGAGAGAGCATCCAGATAAAGCTGAAGAAA, the binding signal (log2 normalized intensity) is -0.814.

Consider GTGAGCCACCACGCCCGGCCAAAGACCACA, for which the binding signal (log2 normalized intensity) was -1.03.

Turning to AGCAATTTAGCAGCACCATCCTACAGGGTA, the binding signal (log2 normalized intensity) was -1.15.

Regarding AGGGGAAAAAGGACTCTGGGAAGATTAAGG, the binding signal (log2 normalized intensity) is -1.1.

Consider TGATAGTCTGCTACCATCAGATAAGCTCAG, for which the binding signal (log2 normalized intensity) is -1.07.

Take TAGAATCTGCAGCCCCTTTTGGAATCCCCA: the binding signal (log2 normalized intensity) was 4.05.

For GAGGGTAAATTCCTTCTTTCTCTCTCCCTT, the binding signal (log2 normalized intensity) amounted to 1.48.

On to AGTCCAACTTCTGCAGGCACCTGGCTCGAC, for which the binding signal (log2 normalized intensity) was -1.08.

Regarding CTTAATTTTCTCCTTTCCTCCTATGTCAAT, the binding signal (log2 normalized intensity) was 1.51.

Take CTCATAGCTCCAGAGCCACCGCTACCACAC: the binding signal (log2 normalized intensity) is -1.13.

On to AGGCTCCCTGGCCACAGGAATGTGACCTTC, for which the binding signal (log2 normalized intensity) is 5.67.

Regarding AGGGAGGTGATTGGTGAGTCTTAGGGAGGG, the binding signal (log2 normalized intensity) is -1.19.

Take CCCTCCCCCTGCATGAACCTTTGCTCCCTG: the binding signal (log2 normalized intensity) was 5.48.

For the sequence AGGGCCCTTCACTATTTTCAAAGGTCAACA, the binding signal (log2 normalized intensity) came to 3.49.

Regarding GGTTGAATTTCAGAGGGAAGAGGAAGCATC, the binding signal (log2 normalized intensity) is -0.981.

Regarding GAATGCCTAGGGGGAAGCCCCTGCTTCCGG, the binding signal (log2 normalized intensity) is -1.08.

On to CAGGCAACCAAGGGTACACACCGTTAGCCA, for which the binding signal (log2 normalized intensity) is -1.08.

For CACTGTATCAGGGAGATAGTCTGAGAGTCA, the binding signal (log2 normalized intensity) was -1.11.

For the sequence AACTTGAAGCAGGCAGGCAGCTTCCAGGTG, the binding signal (log2 normalized intensity) was -1.23.

Turning to CAAAGTGCGACAGGGAGATTTCCTGGGAGA, the binding signal (log2 normalized intensity) was -1.28.

As for ACTCTAAAGGGAATAACCTTTGAGCTGAGT, the binding signal (log2 normalized intensity) worked out at 4.73.

Take AAGGCTGCAAGCAAACCTGCCCTTTGCTCC: the binding signal (log2 normalized intensity) was 5.57.

With TTCTGCCCCTTGCTCCTGCTTGCTGGCTTT, the binding signal (log2 normalized intensity) came to 1.2.

For the sequence ACAAGTGTGATTTTTAGATAGTGACTTGAA, the binding signal (log2 normalized intensity) came to 0.858.

CTGGGTTATGATCCTGGCTCTCCCACTTAT: the binding signal (log2 normalized intensity) was 1.2.

With AAAAGGGCAAAACTGTCACAAGAAAGGCAG, the binding signal (log2 normalized intensity) is -1.13.

For CACACCCCTGGGGAAGGCAGGTCTCTCTCA, the binding signal (log2 normalized intensity) is -1.16.

With TGCAGCCGAACCGGCACGGTTTCGTGGGGA, the binding signal (log2 normalized intensity) was -1.01.

As to CTTTGTTAAAGCATATTTATTCAGGCCCAC, the binding signal (log2 normalized intensity) was determined as 0.83.

As to TAGGGCCTTGCTATGGAGTGGACTTTGGCT, the binding signal (log2 normalized intensity) is 6.16.

As to GGGGAGGGCAGGGTCAGAACCTGCCCATGA, the binding signal (log2 normalized intensity) was -1.06.

Consider GACAGATCAGAGAGATTTTCACATGGAATG, for which the binding signal (log2 normalized intensity) is -0.521.

As for TCTTGTTTGCTAAGTGAGAACACCGTGTAC, the binding signal (log2 normalized intensity) is 1.63.

For TCGTGATAGTGACCACCTGGTGGACCCAGC, the binding signal (log2 normalized intensity) was 3.66.

As to CCCGCAGCCCAGTCTTGGCCCCACCGGTCA, the binding signal (log2 normalized intensity) is 2.25.

On to ATAAAGAACTCTAAGCAGCGAAGCTGTGTC, for which the binding signal (log2 normalized intensity) is -1.02.

In the case of GTGTGTTTACATAACCTGCCCAAAGTGGGG, the binding signal (log2 normalized intensity) was 0.748.

Consider ACAAAACCTGTTTAGGATTAAACAAACAAG, for which the binding signal (log2 normalized intensity) is -1.2.

Consider ATGGTGGCCATTCTGATTTGATAAGATGTG, for which the binding signal (log2 normalized intensity) was determined as 0.774.

On to TTCTGCACCTGCCCTCAGGGAGCTCCAGCA, for which the binding signal (log2 normalized intensity) is -0.952.

For the sequence GAAAGACCTTTTCCCTCCCTCCCAGTACAA, the binding signal (log2 normalized intensity) worked out at 3.69.

For AACCAGATGGCCCTCTCCAAGGCGGTGTGG, the binding signal (log2 normalized intensity) is -1.1.

Turning to ACTTCAAAGCGCAGCGCGGGGCTCAAAGGC, the binding signal (log2 normalized intensity) was -1.13.

On to TTCCTGCTCATGCAGCTGCTGCCCAAAGGT, for which the binding signal (log2 normalized intensity) was -1.05.

Consider TGTTCAAGACCAAAGGTCATGGCAACAGTT, for which the binding signal (log2 normalized intensity) was found to be 4.21.

As to ATGATTGACAGGTTATTTCAATTACAAAGC, the binding signal (log2 normalized intensity) came out at 1.06.

As to GTGGGAGAAAGCTTTGGACTTTGGGCTGTG, the binding signal (log2 normalized intensity) amounted to 5.72.

For AAGAATGGGCAGAAGTAGGATAAGGGTAGG, the binding signal (log2 normalized intensity) was -1.08.

With GGAATTTGGACTTCAGCCCAGGCTGATTAT, the binding signal (log2 normalized intensity) stood at 3.75.

Take GGAAGTCCAACCTTTGCTCACTTGGGGGTG: the binding signal (log2 normalized intensity) came out at 2.59.

Regarding TGGTCAAGGGTCAGTTTCTGAGAGTGGCAA, the binding signal (log2 normalized intensity) came to 2.22.

CCAATCTAGCAAAAATCCTGCCAAACCAGT: the binding signal (log2 normalized intensity) was -1.16.

Turning to ACATACAGGGTCTAGCAGTGCAGCGGGGTC, the binding signal (log2 normalized intensity) was found to be 2.23.

Consider CTAGCAATAACCACAAGGGGGGAGCACCTC, for which the binding signal (log2 normalized intensity) is -0.927.

Take TAATTGCATTCTTTGATGTGCTGGGAGTCA: the binding signal (log2 normalized intensity) is 0.736.

For TCCTTTTATCTTACATGCCTTATCTGGTTC, the binding signal (log2 normalized intensity) was determined as 2.

For the sequence ATCAAGGACTGGGCTGGAACACAAAGAAAG, the binding signal (log2 normalized intensity) was -1.17.

Take GAGGTGACCCCAGGGCAAAGTGCATTGGAG: the binding signal (log2 normalized intensity) was 3.81.

Consider GCCAAAGGTCAGAGTTGAACCCTTGGGGCT, for which the binding signal (log2 normalized intensity) amounted to 3.69.

Turning to GCCAGAGAGATGTCAGCCCAAGATAACCTC, the binding signal (log2 normalized intensity) is -1.09.

Take AGGCAGGCAGCTTCCAGGTGACAGTTAGGT: the binding signal (log2 normalized intensity) is -0.703.

For AGGCCGGTTGGCCAGGTTCCTCCACCGTCA, the binding signal (log2 normalized intensity) was -1.05.

In the case of ATTGATATCACCCTCCCTATCAGCTACTCA, the binding signal (log2 normalized intensity) stood at 1.48.

For TGAAAGTCTAAAGTTCAGTGAGATTAGGAA, the binding signal (log2 normalized intensity) worked out at 3.46.

On to TGTTATAGCTTTTAAAGAACTGGGCGAGCC, for which the binding signal (log2 normalized intensity) was -0.887.

TGCTCCACCTTTGAAATCTCAAATAGCTGG: the binding signal (log2 normalized intensity) is -0.982.

On to ACTGGTAACTAGGTTAATGTGAACAGACAG, for which the binding signal (log2 normalized intensity) came to 0.738.
